The whole screen tested about 7,900 compounds, of which about 400 (5.1%) showed an effect of 50% or more. This is one part of the list.

Parkinson's disease protein 7 (PARK7/DJ1), sequence (Q99497 whole entry, looked up, the tested form may be a part): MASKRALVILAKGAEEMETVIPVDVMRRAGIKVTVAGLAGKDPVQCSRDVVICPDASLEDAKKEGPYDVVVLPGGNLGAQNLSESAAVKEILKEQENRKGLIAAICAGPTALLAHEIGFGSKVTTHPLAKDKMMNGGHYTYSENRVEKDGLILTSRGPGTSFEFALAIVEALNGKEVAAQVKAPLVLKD

This test has as its target Parkinson's disease protein 7 (PARK7/DJ1) (human, UniProt Q99497). As to the kind of experiment: primary screen, percent inhibition; read as competition with a fluorescent probe by fluorescence polarization; higher = more effect of the substance. Particulars: 100 µM. In a few lines:
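Covalent fragments at 100 μM final were incubated 2 h with 0.2 μM PARK7, then 20 nM probe JYQ-107 added for a further 2 h. Fluorescence polarization read at 480/520 nm; relative FP loss versus reference controls gave remaining enzyme activity.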
Turning to `CN(CCS(=O)(=O)F)S(=O)(=O)c1cccs1`, the Inhibition % worked out at 22.7%. `O=C(CCl)Nc1ccc(Cl)cc1Cl`: the Inhibition % is 18%.

In the case of `Cc1ccnc(NS(=O)(=O)c2ccc(S(=O)(=O)F)cc2)n1`, the Inhibition % is 36.3%. For the molecule `CC1CC1C(=O)N1CCCC(CS(=O)(=O)F)C1` (centres unmarked), the Inhibition % amounted to 71.5%. `O=C(CCl)NCc1ccccc1OC1CCCC1`: the Inhibition % is reported as 29.8%. For `COC(Cc1ccccc1F)OC`, the Inhibition % worked out at 7.12%. The same measure for `O=C(c1ccc(S)nc1)N1CCCC1`: 40.7%; for `CC1(C)OB(c2ccc(C(F)(F)F)c(Cl)c2)OC1(C)C`: 7.89%. The same measure for `CC1(C)OB(c2ccc3nscc3c2)OC1(C)C`: 21.3%; for `O=C(C=Cc1nc2ccccc2o1)N1CCCCCC1`: 19.2%; for `Cc1csc(C2CCN(C(=O)C3CSC(=O)N3)CC2)n1` (centres unmarked): 6.86%. In the case of `CCc1cc(N)nc(S)n1`, the Inhibition % is 14.3%.

In the case of `O=C(CCN1C(=O)CCC1=O)Nc1cc(F)cc(F)c1`, the Inhibition % was 5.96%.

As to `Cc1ccsc1C=C(C#N)C(N)=S`, the Inhibition % is 3.4%. `C=CC(=O)Nc1nc(-c2ccc3c(c2)OCO3)cs1`: the Inhibition % turned out to be 5.39%. As to `C=CC(=O)N[C@@H](C)C1CCCC(C)C1` (some centres unmarked), the Inhibition % is listed as 22.6%. In the case of `O=C1NCCCc2nn(CCS(=O)(=O)F)cc21` it was 15.5%; in that of `NC(=O)C1CCCN(S(=O)(=O)C=Cc2ccccc2)C1` (centres unmarked), 6.58%; in that of `O=C1OCCC1N1CCN(c2ccc(O)cc2)CC1` (centres unmarked), 28.7%. The same measure for `Cc1cccc(Nc2nccnc2C#N)c1`: 7.87%; for `O=C(Oc1ccccc1)N1CCN(CCCO)CC1`: 6.21%.

Consider `C=CC(=O)N1CC(C)(C(N)=O)C1`, for which the Inhibition % turned out to be 14.2%.

In the case of `CCOc1ccc(S(=O)(=O)n2ccnc2)cc1C`, the Inhibition % was 11.6%.

For the molecule `Cl.Cl.O=C(O)C1CCN(C(=O)C=Cc2nc3ccccc3s2)C1` (centres unmarked), the Inhibition % amounted to 9.53%. In the case of `Cc1cc(N)nc(S)n1` it was 13.7%; in that of `O=S(=O)(F)c1cccnc1`, 17.7%; in that of `CCS(=O)(=O)c1ccc(NC(=O)CCl)c(O)c1`, 7.84%. In the case of `CC1(C)OB(c2ccnc3ccccc23)OC1(C)C` it was 7.25%; in that of `C=CC(=O)N1CCN(CCOC)C(=O)C1`, 13.8%; in that of `COc1ccc(B(O)O)cc1CN(C)C.Cl`, 8.9%. Turning to `C=CC(=O)Nc1ccc2c(c1)OCO2`, the Inhibition % is listed as 16%. In the case of `C=CC(=O)NC1CCN(C2CC2)CC1` it was 10%.

With `C=CC(=O)NCCc1ccnn1C`, the Inhibition % amounted to 5.79%. In the case of `C=CC(=O)Nc1ccccc1F` it was 11.3%; in that of `C=CC(=O)N1CCC(NC(=O)c2ccccc2)CC1`, 4.46%; in that of `CCCNS(=O)(=O)C=Cc1ccccc1`, 5.36%. In the case of `COc1cc(B2OC(C)(C)C(C)(C)O2)ccc1O`, the Inhibition % is recorded as 12.8%.

For `CC1(C)OB(CC2CCCNC2)OC1(C)C.Cl` (centres unmarked), the Inhibition % amounted to 10.4%.

For `N#Cc1ccc(C(=O)N[C@@H]2C[C@@H](O)C23CCOCC3)[nH]1`, the Inhibition % was 8.8%.

`C=CC(=O)N1CCSC2(CCCCC2)C1`: the Inhibition % turned out to be 5.08%. In the case of `C#CC(C)(C)N(C)S(=O)(=O)c1cccnc1C#N`, the Inhibition % turned out to be 8.71%. As to `Cc1csc(N2CCCN(C3CCOC3=O)CC2)n1` (centres unmarked), the Inhibition % is on record as 4.3%.

For the molecule `CCN(C(=O)CC1C=CS(=O)(=O)C1)c1ccccc1C` (centres unmarked), the Inhibition % is recorded as 4.03%. In the case of `Cl.Cl.O=C(O)C1CCN(C(=O)C=Cc2cncc(F)c2)C1` (centres unmarked) it was 8.2%; in that of `C=CC(=O)N1CCC(C2CCCCO2)CC1` (centres unmarked), 11.7%. For the molecule `O=C(Nc1ccccc1F)N1CCC(C2OCCO2)CC1`, the Inhibition % is recorded as 5.67%. Turning to `Cl.O=C(CCl)NCCN1CCc2ccccc21`, the Inhibition % was determined as 18.9%. Turning to `N#Cc1c(-c2ccccc2)nc(S)[nH]c1=O`, the Inhibition % is listed as 13.2%. On to `N#Cc1ncn(CC(=O)NCc2ccc(Cl)cc2)n1`, for which the Inhibition % turned out to be 2.75%. As to `CC1(C)OB(c2cc(F)cc(F)c2Br)OC1(C)C`, the Inhibition % was 3.76%. `Cc1cccc(NC(=O)CCl)c1`: the Inhibition % is listed as 8.99%. As for `C=CC(=O)N1CCCc2c1nc[nH]c2=O`, the Inhibition % came out at 20.2%. As to `ClCC1CN(Cc2ccccc2)CCCO1` (centres unmarked), the Inhibition % was determined as 2.58%. On to `Cc1ccc(C=CS(=O)(=O)N2CCOCC2C#N)cc1` (centres unmarked), for which the Inhibition % was 2.61%. In the case of `C=CC(=O)Nc1cccc(C(=O)NC2CC2)c1` it was 11.9%. As for `COC(Cc1ccc(F)cc1)OC`, the Inhibition % turned out to be 13.8%. As to `O=C1OCCC1Oc1ncnc2ccccc12` (centres unmarked), the Inhibition % came to 4.34%. In the case of `COc1ccc(-c2ccncc2)cc1B(O)O` it was 6.7%; in that of `C=CC(=O)NC(C)c1nnnn1C1CC1` (centres unmarked), 5.13%.

Take `O=C(CC1SC(=O)NC1=O)Nc1ccc(Cl)cc1` (centres unmarked): the Inhibition % stood at 95.7%.

As to `Cc1ccc(S(=O)(=O)N2CCN(C(=O)CCl)CC2)cc1`, the Inhibition % amounted to 11.5%. `O=S(=O)(F)c1ccc(C(F)(F)F)cn1`: the Inhibition % was 6.36%. For `C=CC(=O)N1CCCC(S(=O)(=O)N(C)C)C1` (centres unmarked), the Inhibition % worked out at 8.23%. Consider `C=CC(=O)N1CC(Oc2nccs2)C1`, for which the Inhibition % stood at 6.56%.

On to `Cn1cc(C=C2N=C(c3ccc(F)c(F)c3)OC2=O)cn1`, for which the Inhibition % came out at 9.66%. In the case of `CC(=O)Nc1cccc2c1CCN(C1CC(C)OC1=O)C2` (centres unmarked) it was 1.86%. The same measure for `CCc1nccn1S(=O)(=O)c1cc(Cl)c(C)cc1OC`: 4.53%; for `COCCCn1c(S)nc2cc(Cl)ccc2c1=O`: 6.34%; for `N#Cc1cccc(N2C[C@H](F)C[C@H]2C(N)=O)n1`: 10.3%. In the case of `OB(O)c1ccc2c(c1F)OCO2`, the Inhibition % worked out at 1.39%. As for `Cc1onc(-c2ccccc2)c1B1OC(C)(C)C(C)(C)O1`, the Inhibition % is on record as 4.99%.

Take `O=C1SCCN1CC(=O)N1CCCc2ccccc21`: the Inhibition % turned out to be 7.03%. In the case of `O=C(CCl)c1ccc(F)c(C(=O)CCl)c1` it was 100%; in that of `O=C(C=Cc1nc2ccccc2s1)N1CCCC1`, 6.38%; in that of `O=C(CCl)Nc1ccc(C(=O)O)cc1`, 25.9%. On to `C=CC(=O)Nc1ccccc1`, for which the Inhibition % was 3.57%.

Turning to `CCCN1C(=O)CN=C1S`, the Inhibition % worked out at 4.44%. `O=C(CCl)N(C1CCCCC1)C1CCCCC1`: the Inhibition % was 4.3%.

As to `CC1(C)OB(c2cccc3c2CNC3=O)OC1(C)C`, the Inhibition % is on record as 8.35%. For the molecule `Cc1c(C=CC(=O)c2ccc(O)cc2)cc(C#N)n1C`, the Inhibition % was 8.15%. Take `Cc1csc(NC(=O)NC2CC(C)(C)OC2=O)n1` (centres unmarked): the Inhibition % came to 9.18%. Regarding `Cc1nc(C)c(C(=O)CCl)o1`, the Inhibition % was determined as 95.2%. On to `O=C1OCCC1Sc1nnc(-c2ccc(Cl)cc2)o1` (centres unmarked), for which the Inhibition % is 4.59%. Regarding `CCCN1CCN(c2oc(-c3ccco3)nc2C#N)CC1`, the Inhibition % was determined as 9.64%. The same measure for `Cc1nc(C(C#N)=Cc2ccnn2C)sc1C`: 16.2%. For the molecule `COCCOc1ccc2cc(B(O)O)ccc2c1`, the Inhibition % was 4.68%. With `C=CC(=O)N1CCC(CC#N)CC1`, the Inhibition % turned out to be 3.54%. For the molecule `CC1(C)OB(c2ccc(N)c(O)c2)OC1(C)C`, the Inhibition % stood at 92.7%. Turning to `N#CC(=Cc1ccc(F)cc1)C(=O)N1CCCCC1`, the Inhibition % is 9.17%. As for `O=C1CCC(=O)N1Cc1ccc(F)c2cccnc12`, the Inhibition % was found to be 3.52%. As for `C=CC(=O)NCc1nn(C)c2ccccc12`, the Inhibition % is reported as 14%.

Consider `C=CC(=O)Nc1ccc(C)c(F)c1`, for which the Inhibition % is reported as 1.76%. With `Cn1ccnc1C(NC(=O)CCl)c1ccccc1` (centres unmarked), the Inhibition % was -4.28%. `CC=Cc1ccc(OCC2CO2)c(OC)c1` (centres unmarked): the Inhibition % is reported as 9.03%.

For the molecule `CC(C)C1NC(=O)C12CCOCC2` (centres unmarked), the Inhibition % was 5.86%. On to `CC(=O)Nc1ccc(B2OC(C)(C)C(C)(C)O2)cn1`, for which the Inhibition % is given as 3.49%. Take `C=CC(=O)NC1CCN(Cc2ccccc2)C1=O` (centres unmarked): the Inhibition % is on record as 9.78%.

For the molecule `Cc1nn(S(=O)(=O)N2CCCCC2)c(C)c1C`, the Inhibition % is 11.1%. In the case of `C=CC(=O)NCCc1noc2ccccc12`, the Inhibition % came to 15.4%. For `C=CC(=O)NC1CCCCC1n1cccn1` (centres unmarked), the Inhibition % was 7.61%. Consider `N#CC(=Cc1cccs1)C(=O)Nc1ccc(C(=O)O)cc1`, for which the Inhibition % amounted to 6.67%.

Turning to `O=C(O)c1nccnc1S`, the Inhibition % is given as 83.1%. Regarding `CCOc1ccc(C(C)C)cc1S(=O)(=O)n1ccc(C)n1`, the Inhibition % is 1.74%. Take `C=CC(=O)NC1CCC2(CC1)OCCO2`: the Inhibition % came to 9.19%. For the molecule `C=CC(=O)N1CCCC(N2CCCC2=O)C1` (centres unmarked), the Inhibition % was 4.38%. In the case of `C=CC(=O)NCC1CSCCS1` (centres unmarked), the Inhibition % came to 9.78%. With `N#CC=C(Cl)c1ccc(F)cc1F`, the Inhibition % is given as 9.44%. In the case of `CN(C)C(=O)Sc1cnc2nccn2c1`, the Inhibition % came out at 3.18%. In the case of `COc1ccc(SCCN2C(=O)CCC2=O)cc1`, the Inhibition % is listed as 7.03%.

As for `CC1(C)OB(c2cc(F)ccc2[N+](=O)[O-])OC1(C)C`, the Inhibition % was 6.19%. The same measure for `CN1CCN(c2cccc(C#N)n2)CC1`: 5.08%; for `N#Cc1c(N)nc2n1CCS2`: 4.18%. Consider `N#Cc1cc(C(=O)NCC2CCn3ccnc3C2)c[nH]1` (centres unmarked), for which the Inhibition % is recorded as 6.88%. As to `CC(=O)c1ccc(S(=O)(=O)F)cc1`, the Inhibition % is 34.9%. On to `COc1cc(C)c(Cl)cc1S(=O)(=O)n1cnc(C)c1`, for which the Inhibition % is reported as 5.05%. Regarding `C=CC(=O)N(C)C1CC(C(C)(C)C)C1` (centres unmarked), the Inhibition % turned out to be 7.25%. In the case of `C=CC(=O)NC1CCCc2nn(C)cc21` (centres unmarked) it was 10.2%; in that of `Cc1ccoc1C(=O)Nc1cccc(S(=O)(=O)F)c1`, 7.02%; in that of `FC(F)(F)c1cccc(OCC2CO2)c1` (centres unmarked), 9.5%. On to `C=CC(=O)N(C)c1ccccc1`, for which the Inhibition % came out at 2.77%. In the case of `C=CC(=O)N1C[C@@H]2CCO[C@@H]2C1` (racemic), the Inhibition % was determined as 7.04%.

In the case of `CCCNC(=O)C(C#N)=Cc1ccc(C(F)(F)F)[nH]1`, the Inhibition % stood at 2.8%. On to `C=CC(=O)N1CCCC1c1ccc(COC)o1` (centres unmarked), for which the Inhibition % was 1.71%. Regarding `CC1(C)OB(c2ccc(NS(C)(=O)=O)cc2)OC1(C)C`, the Inhibition % is recorded as 3.69%. The same measure for `CC(=O)NCc1ccc(C(=O)CCl)s1`: 91.1%.

The record behind these values is article PMC9574860, “Chemical Toolkit for PARK7: Potent, Selective, and High-Throughput” (Journal of Medicinal Chemistry, 2022).
